Results: paper PMC4336329 (PLoS ONE, 2015)
The whole screen tested about 310,000 compounds, of which about 2,200 (0.71%) showed an effect of 50% or more. The effect is printed as a negative number. The list shows a part of the results.

Target: human ether-à-go-go-related gene (hERG) potassium channel (human, UniProt Q12809)
Experiment: primary screen, population patch clamp on CHO cells stably expressing hERG

human ether-à-go-go-related gene (hERG) potassium channel, sequence (Q12809 whole entry, looked up): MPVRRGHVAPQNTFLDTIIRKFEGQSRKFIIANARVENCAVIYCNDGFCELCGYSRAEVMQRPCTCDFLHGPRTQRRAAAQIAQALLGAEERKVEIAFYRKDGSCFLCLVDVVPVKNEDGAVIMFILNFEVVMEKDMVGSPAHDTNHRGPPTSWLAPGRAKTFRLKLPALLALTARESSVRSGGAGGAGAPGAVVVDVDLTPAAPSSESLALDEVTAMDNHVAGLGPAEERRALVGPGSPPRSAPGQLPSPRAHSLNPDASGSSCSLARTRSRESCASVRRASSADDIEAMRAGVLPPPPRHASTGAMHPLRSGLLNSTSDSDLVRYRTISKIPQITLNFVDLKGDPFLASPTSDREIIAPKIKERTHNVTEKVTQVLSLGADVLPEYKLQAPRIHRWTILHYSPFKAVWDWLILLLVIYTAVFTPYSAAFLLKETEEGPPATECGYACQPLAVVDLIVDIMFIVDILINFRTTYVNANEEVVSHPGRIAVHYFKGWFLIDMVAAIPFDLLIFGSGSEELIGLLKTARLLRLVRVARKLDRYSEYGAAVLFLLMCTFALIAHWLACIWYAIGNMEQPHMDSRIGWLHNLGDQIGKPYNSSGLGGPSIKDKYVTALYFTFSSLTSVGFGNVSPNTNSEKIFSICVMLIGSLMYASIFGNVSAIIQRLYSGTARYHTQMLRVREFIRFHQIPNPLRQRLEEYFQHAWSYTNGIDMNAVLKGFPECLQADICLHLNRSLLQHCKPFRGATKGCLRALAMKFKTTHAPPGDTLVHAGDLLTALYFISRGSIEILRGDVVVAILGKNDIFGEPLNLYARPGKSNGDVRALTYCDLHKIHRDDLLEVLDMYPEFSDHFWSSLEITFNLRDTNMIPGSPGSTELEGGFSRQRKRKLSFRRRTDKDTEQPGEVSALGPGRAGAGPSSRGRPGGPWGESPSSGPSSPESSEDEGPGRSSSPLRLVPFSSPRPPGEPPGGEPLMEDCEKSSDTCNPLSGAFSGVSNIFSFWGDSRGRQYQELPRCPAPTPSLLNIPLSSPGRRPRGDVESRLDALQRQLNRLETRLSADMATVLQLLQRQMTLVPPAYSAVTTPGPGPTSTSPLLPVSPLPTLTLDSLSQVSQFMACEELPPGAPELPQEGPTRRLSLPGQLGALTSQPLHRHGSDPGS

| Structure (SMILES) | hERG current change (%, negative = inhibition) at 1uM |
| --- | --- |
| Cc1noc2ncnc(Oc3ccc(C(C)(C)C)cc3)c12 | 8% |
| CCSc1ccccc1C(=O)n1nnc2ccccc21 | 10.1% |
| O=C(/C=C/c1cccs1)N1CCOCC1 | 12.8% |
| Cc1cc(Nc2cccc(F)c2)n2c(n1)nc1ccccc12 | 7.86% |
| CN(C)CC/C=C1/c2cc(F)ccc2Sc2ccc(Cl)cc21.Cl | 4.37% |
| Cc1ccc(-n2c(SCC(=O)N/N=C/c3ccccc3OCC(=O)O)nc3ccccc3c2=O)cc1 | 11% |
| O=c1c2ccccc2nc(-c2ccccc2)n1Cc1ccc(Cl)cc1 | 8.65% |
| O=C(Nc1ccccc1Cl)Oc1ccc(Cl)cc1Cl | 12.1% |
| CCOc1c(C)cnc2c1c(=O)n(Cc1ccc(Cl)cc1)c(=O)n2C | 11.9% |
| Cc1ccc(S(=O)(=O)N2CCC(C(=O)N(C)C3CCS(=O)(=O)C3)CC2)cc1 (stereo not shown) | 3.49% |
| COc1ccc(CCN2C(=O)C3C4C=CC(C4)C3C2=O)cc1OC (stereo not shown) | 7.3% |
| CS(=O)(=O)c1ccc(C(=O)OC2CCOC2=O)cc1[N+](=O)[O-] (stereo not shown) | 16.7% |
| COc1cc2ccccc2cc1C(=O)NC(=S)Nc1cccc(C(=O)O)c1C | 11% |
| Cc1cccn2c(=O)c3cc(C#N)c(=O)n(-c4c(C)n(C)n(-c5ccccc5)c4=O)c3nc12 | -0.718% |
| O=C(C1=C[C@@H](c2ccc(Br)cc2)C[C@@H](OCc2ccc(CO)cc2)O1)N1CCOCC1 | 3.5% |
| O=C(NCc1ccc(F)cc1)C1CCCN(S(=O)(=O)c2ccc(Br)s2)C1 (stereo not shown) | -1.1% |
| COCCCNC(=S)N1CCCN(c2nc3cc(C)ccc3cc2C#N)CC1 | -10.4% |
| CC1(N2CCOCC2)CC2(O)C(=[N+]1[O-])CCc1nonc12 (stereo not shown) | 16.8% |
| COc1ccc(NC(=O)N2C3CCCC2CC(NC(=O)C2CC2)C3)cc1 (stereo not shown) | 18.4% |
| Cc1nc(-c2cccc(Cl)c2)n[nH]1 | 13% |
| O=C(NNC(=O)C12CC3CC(CC(C3)C1)C2)c1ccccc1O | 6.41% |
| COCCNC(=O)CCc1nnc2ccc(N3CCC(C)CC3)nn12 | 19.8% |
| COc1ccc(C2=NOC(C(=O)Nc3cc(C)on3)C2)cc1OC (stereo not shown) | 5.71% |
| CSCC[C@H](NC(=O)N1CCn2c1nc1ccccc12)C(=O)NCc1ccccc1 | 17.9% |
| Cc1ccc(S(=O)(=O)N2CCN(C(=O)Cn3nc(C(=O)O)c4ccccc4c3=O)CC2)cc1 | 15.4% |
| CCOc1cc(/C=C(/C#N)C(=O)Nc2ccc(O)cc2)cc(Br)c1O | 4.59% |
| Cc1nn(CC(=O)N(C)C2CCS(=O)(=O)C2)c(C)c1S(=O)(=O)N(C)C (stereo not shown) | 5.66% |
| CCOC(=O)C1=NN(C(=O)c2ccc(OC)cc2)C(O)(c2ccc(Cl)cc2)C1 (stereo not shown) | 6.32% |

| Structure (SMILES) | hERG current change (%, negative = inhibition) at 1uM |
| --- | --- |
| N#Cc1ccc(CSc2nnc(-c3ccccc3)n2Cc2ccco2)cc1 | -34.4% |
| Br.CN1C(c2ccc(F)cc2)=CS/C1=C(/C#N)c1nnc(N2CCOCC2)n1-c1ccccc1 | -8.89% |
| COc1ccc(NC(=O)C2=C(C)NC(=O)NC2c2cccc(OC)c2OC)c(OC)c1 (stereo not shown) | 18.3% |
| COc1ccc(CCN(Cc2cc3cc(C)ccc3[nH]c2=O)C(=O)N2CCCC2)cc1OC | -4.9% |
| COc1ccc(/C=C2/C(=O)N(Cc3ccccc3)N=C2C)cc1 | 6.37% |
| O=C(c1cccc2ccccc12)C1CCCN(C(=O)CCN2CCCO2)C1 (stereo not shown) | 5.74% |
| CC(=O)Nc1ccc(C(=O)CN2CCN(c3ccccc3)CC2)cc1 | 9.15% |
| COc1ccc(C2=CC3=CC(=O)C(C)(O)C(=O)C3=CO2)cc1 (stereo not shown) | 6.74% |
| NS(=O)(=O)c1ccc(CNC(=O)c2cc(-c3ccccc3)nc3ccccc23)cc1 | 6.11% |
| COc1ccccc1C(=O)NCC(=O)OC(C)C(=O)NC(=O)NC1CCCCC1 (stereo not shown) | 8.93% |
| O=C(NCc1ccco1)c1ccc2c(c1)N(Cc1ccccc1)CCS2 | 3.71% |
| CCCC(c1nnnn1Cc1cccs1)N1CCN(c2nc3ccccc3s2)CC1 (stereo not shown) | 9.82% |
| Cc1cc(OC(C)C(=O)Nc2ccc(S(=O)(=O)Nc3onc(C)c3C)cc2)cc(C)c1Cl (stereo not shown) | -0.475% |
| C=CCn1c(NCc2ccc(OC)cc2)nc2ccccc21 | 12.9% |
| Cc1ccsc1C(=O)OCc1nc2ccsc2c(=O)[nH]1 | 5.07% |
| Cc1cc(C)c(NS(=O)(=O)c2ccc(NC(=O)c3cccs3)cc2)c(C)c1 | 10.6% |
| Cc1ccc(S(=O)(=O)N2CCN(C(=O)COC(=O)/C=C/c3ccccc3[N+](=O)[O-])CC2)c(C)c1 | 20% |
| COc1ccc(NS(=O)(=O)c2ccc3c(c2)CCCN3C(C)=O)cc1 | 3.91% |
| Cc1ccc(CC(=O)Nc2cc(C)on2)cc1 | 3.37% |
| CCOc1ccc(-n2c(O)c(C=Nc3ccc(N4CCOCC4)cc3)c(=O)[nH]c2=O)cc1 | 6.19% |
| COCCCNC(=S)N1CCC(C(=O)c2ccc(Cl)cc2)CC1 | 10.5% |
| COc1ccc(Cn2c(=O)cc(C)[nH]c2=S)cc1 | 10.3% |
| CC(=NCc1ccc2c(c1)OCO2)c1c(O)[nH]c(=O)[nH]c1=O | -2.99% |
| Cc1nn(-c2ccc(C(=O)NCC(c3ccco3)N3CCCC3)cc2)c(C)c1Cl (stereo not shown) | 5.69% |
| COc1ccc(-n2c(SCC#N)nnc2-c2ccc(NS(=O)(=O)c3ccc(C)cc3)cc2)cc1 | 2.5% |
| Clc1cccc(CSc2nnc(-c3cccnc3)n2Cc2ccco2)c1 | -61% |
| COc1ccccc1OCC(O)CN1CCN(C(=O)c2ccccc2)CC1.Cl (stereo not shown) | 10.4% |
